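Five compound concentrations were applied to cells in 96-well plates for 48 hours; endpoints were derived by simple linear interpolation of the resulting dose-response curve. Abbreviation: GI50, concentration required for 50% inhibition of growth.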 Calls of active or inactive are those of the source. No stated cut-off is given here; in the data, active = GI50 up to about 1.1 µM and inactive = higher.
System: NCI-H322M
Assay: growth of human tumour cells (NCI), 48 h

Row | Structure (SMILES) | GI50
1 | Nc1ccc(-c2nc3ccccc3s2)cc1Br | inactive: > 83.8 µM
2 | CN(Cc1cc(Br)cc(Br)c1O)Cc1c(O)ccc2ccccc12 | inactive: 16.4 µM
3 | Cn1c(=O)c2nc(CCCc3ccc([N+](=O)[O-])cc3)[nH]c2n(C)c1=O | inactive: > 100 µM
4 | N[C@H](Cc1ccc2oc3cc(=O)c4ccccc4c-3nc2c1)C(=O)O | inactive: 27.4 µM
5 | Nc1ccc(-c2ccc(Nc3cc(S(=O)(=O)O)c(N)c4c3C(=O)c3ccccc3C4=O)cc2)c(S(=O)(=O)O)c1 | inactive: > 100 µM
6 | O=C(O)C12C3C4C1C1C2C3C41I (stereo unspecified) | inactive: > 100 µM
7 | NC(=S)N/N=C1\CCc2ccccc2C1 | inactive: > 100 µM
8 | CC(=O)[C@]1(C)[C@H](C)O[C@](C)(CO)[C@H]1O[Si](C)(C)c1ccccc1 | inactive: > 100 µM
9 | CC1(C)C(=NNC(=S)NN)C(C)(C)C1=NNC(=S)NN | inactive: > 100 µM
10 | Cn1c(=O)c2ccccc2[n+]2c(-c3cccc([N+](=O)[O-])c3)csc12 | inactive: > 100 µM
11 | O=C(NC(C(F)(F)F)(C(F)(F)F)P(=O)(c1ccccc1)c1ccccc1)C(C(F)(F)F)C(F)(F)F | inactive: > 100 µM
12 | CCCCCCCCCC(=O)Oc1cccc2onc(C)c12 | inactive: > 100 µM
13 | CCOC(=O)Cc1nnc2n(-c3ccccc3)c(=O)c3ccccc3n12 | inactive: > 100 µM
14 | Nc1nc2c(ncn2CCOC(c2ccccc2)P(=O)(O)O)c(=O)[nH]1 (stereo unspecified) | inactive: > 100 µM
15 | O=C1/C(=C\c2cccc(Oc3ccccc3)c2)S(=O)(=O)C(c2ccccc2)N1Cc1ccccc1 (stereo unspecified) | inactive: 66.2 µM
16 | COc1cc2c3c(c1Oc1nnnn1-c1ccccc1)-c1c(ccc4c1OCO4)C[C@H]3N(C)CC2 | inactive: 42.5 µM
17 | Cc1cc(N(CCC#N)CCC#N)ccc1/C(Sc1ccccc1)=C(\NC(=O)/C=C/c1ccccc1)C(=O)Sc1ccccc1 | inactive: 5.79 µM
18 | N#Cc1nc(C#N)n(S(=O)(=O)c2ccccc2)c1NS(=O)(=O)c1ccccc1 | inactive: > 100 µM
19 | NCCCNC1(c2cc3ccccc3s2)CCCCC1 | inactive: 8.63 µM
20 | C[N+](C)(C)CC(=O)N/N=C(\C(=O)Nc1ccc(Cl)cc1)C1C(=O)N(c2ccccc2)N=C1N (stereo unspecified) | inactive: > 100 µM
21 | Cc1ccc2c(=O)cc(-c3ccc(-c4ccccc4)s3)[nH]c2n1 | inactive: > 53 µM
22 | C=CCN(N=O)C(=O)N(CCCCC(NC(C)=O)C(=O)NCc1ccccc1)Cc1ccccc1 (stereo unspecified) | inactive: 28.2 µM
23 | N=C(N)NS(=O)(=O)c1ccc(Nc2c3ccccc3nc3c(C(=O)NNCCO)cccc23)cc1 | active: 0.34 µM
24 | CC(C)C(NC(=O)Oc1ccccc1)C(=O)NC1c2c(Br)sc(Br)c2C(=O)C1O (stereo unspecified) | inactive: 7.45 µM

Row | Structure (SMILES) | GI50
25 | CC1(C)N[PH]2(Nc3ccccc3O2)OC1=O | inactive: > 100 µM
26 | [O-][S+]1Nc2cccc(C(F)(F)F)c2S1 (stereo unspecified) | inactive: 52.7 µM
27 | N#Cc1nsnc1-c1nc(-c2nsnc2C#N)nc(-c2nsnc2C#N)n1 | inactive: > 100 µM
28 | O=C(CCc1nnc2s/c(=C\c3ccc4c(c3)OCO4)c(=O)n12)Nc1cc(Cl)ccc1Cl | inactive: > 100 µM
29 | O=C(O)c1cccc(S(=O)(=O)NN2C(=O)CSC2c2ccccc2)c1 (stereo unspecified) | inactive: > 100 µM
30 | COC(=O)C(CCCC1(c2ccccc2)OCCO1)C(C)=O (stereo unspecified) | inactive: > 100 µM
31 | O/N=C1\Nc2ccccc2OCc2cc(Br)c(Br)cc2COc2ccccc2N\C1=N/O | inactive: 11.3 µM
32 | CCOc1ccccc1/N=C\c1c2ccccc2cc2ccccc12 | inactive: 26.7 µM
33 | CN(C)CC(O)CNC(=O)Nc1ccccc1 (stereo unspecified) | inactive: > 100 µM
34 | O=C1c2ccccc2CN1c1ccc(O)cc1 | inactive: > 100 µM
35 | CC(=O)N(C(=O)CC(=O)N1N=C(c2ccccc2)C(/N=N/c2ccccc2[N+](=O)[O-])C1=O)c1ccc(Cl)cc1 (stereo unspecified) | inactive: > 10 µM
36 | CN(C)CCCn1c(Cc2ccc(Cl)cc2)nc2cc(C(F)(F)F)ccc21 | inactive: 16.8 µM
37 | O=C1NC(=O)C2C(=O)NC(=O)C1C2(c1ccccc1)c1cc[nH]c1 (stereo unspecified) | inactive: > 100 µM
38 | CCOC(=O)C(NC(=O)c1ccccc1)(Nc1ccc(S(=O)(=O)Nc2nc(C)cc(C)n2)cc1)C(F)(F)F (stereo unspecified) | inactive: > 100 µM
39 | CC1(OCc2ccccc2)C(=O)N2C1N(C(=O)OCc1ccccc1)CC2(C)C (stereo unspecified) | inactive: > 100 µM
40 | O=C1C2=C(CCCCC2)C2CCCCC12O (stereo unspecified) | inactive: > 100 µM
41 | CCOC(=O)C1=C(Nc2ccc(NC3=C(C(=O)OCC)C(=O)CS3)cc2)SCC1=O | inactive: 16.4 µM
42 | COc1ccc(C2N(c3ccc(F)c([N+](=O)[O-])c3)C(=O)N3C(c4ccc(OC)cc4)N(c4ccc(F)c([N+](=O)[O-])c4)C(=O)N23)cc1 (stereo unspecified) | inactive: > 100 µM
43 | CC(=O)Nc1c(C)ccc2c1C(=O)c1ccccc1C2=O | inactive: > 100 µM
44 | O=C1c2ccccc2C(=O)c2sc(Nc3ccc(Cl)c(Cl)c3)nc21 | inactive: 15.6 µM
45 | CC(=O)N(C(C)=O)n1c(Cc2ccc(Cl)cc2)n[nH]c1=O | inactive: > 100 µM
46 | SCc1ccc(-c2ccc(CS)cc2)cc1 | inactive: 6.05 µM
47 | c1ccc(C2=Nn3c(CCCCCCCCc4nnc5n4N=C(c4ccccc4)CS5)nnc3SC2)cc1 | inactive: > 88.7 µM
48 | NCCOc1cccc(C2(N3CCCCC3)CCCCC2)c1 | inactive: 34.6 µM

Row | Structure (SMILES) | GI50
49 | O=C1c2ccccc2N2OC3(N4CCCC4)CCCC3C12c1ccccc1 (stereo unspecified) | inactive: > 100 µM
50 | C[Si](C)(C)/C(Br)=C\CCN1C(=O)CCC1O (stereo unspecified) | inactive: > 100 µM
51 | C=C1[C@H](OCC(C)C)[C@@H](OCC(C)C)[C@@H](O)C(C)(C)/C=C/[C@H](C)C(=O)[C@@]2(O)C[C@H](C)[C@H](O)[C@@H]2[C@H]1OCC(C)C | inactive: > 7.5 µM
52 | O=C(c1ccccc1)c1nc2c(Cl)ccc(Cl)c2cc1C(Br)Br | active: 0.929 µM
53 | COc1ccc(/N=N/C(=N/NC(=O)c2ccc(C)cc2)c2ccc(N(CCC#N)CCC#N)cc2OC)cc1 | inactive: > 100 µM
54 | COC12C=CC(CC1)C(C)(C)C2OS(C)(=O)=O (stereo unspecified) | inactive: > 100 µM
55 | CC(=O)Nc1c(C(=N)C#N)ncn1CCO | inactive: > 100 µM
56 | COc1ccc(CCNC(=O)c2ccccc2C2c3ccc(OCc4ccccc4)cc3Oc3cc(OCc4ccccc4)ccc32)cc1OC | inactive: > 100 µM
57 | CC(C)/C(Cl)=N\OC(=O)Nc1ccccc1F | inactive: 20.8 µM
58 | CC1(C)CN=C(Nc2ccc(Cl)cc2)S1 | inactive: > 100 µM
59 | S=C(N/N=C\C(=N/NC(=S)N1CCCCC1)c1ccccc1)N1CCCCC1 | inactive: 1.9 µM
60 | O=c1[nH]c2nc3ccccc3c(=O)n2nc1Cc1ccccc1 | inactive: > 100 µM
61 | CC1CN(CCO)CC(C)O1 (stereo unspecified) | inactive: > 100 µM
62 | Cc1ccc(Oc2ccc([N+](=O)[O-])cc2[N+](=O)[O-])c(C)c1 | inactive: 44.2 µM
63 | CN(C)/N=N/c1nc2c(c(=O)n(C)c(=O)n2C)n1C | inactive: > 100 µM
64 | Clc1ncnc2c1nc(C#Cc1ccccc1)n2C1CCCCO1 (stereo unspecified) | inactive: 1.67 µM
65 | O=C(Cc1ccccc1)NNc1nc(NNC(=O)c2ccncc2)nc(Nc2ccc(Cl)cc2)n1 | inactive: > 10 µM
66 | O=C(NCCCN1CCN(CCCNC(=O)c2cnc3ccccc3n2)CC1)c1cnc2ccccc2n1 | inactive: > 100 µM
67 | N#Cc1c(-c2ccccc2)[nH]c(=O)n(C2OC(CO)C(O)C(O)C2O)c1=O (stereo unspecified) | inactive: > 100 µM
68 | COC(=O)C1=C(c2cc(OC)c(OC)c(OC)c2)OC(c2ccc(OC)c(OC)c2)C1 (stereo unspecified) | inactive: 88.3 µM
69 | Nc1nc(NCc2ccccc2)cc(NCc2ccccc2)n1 | inactive: 6.14 µM
70 | CNc1ccccc1S(=O)(=O)c1ccccc1[N+](=O)[O-] | inactive: > 100 µM
71 | N=c1ccn2c(n1)OC1C(OP(=O)(O)O)C(CO)OC12 (stereo unspecified) | inactive: > 66.2 µM
72 | O=C1/C(=N/c2ccc(Nc3ccccc3)cc2)Oc2ccccc21 | inactive: 5.46 µM

Row | Structure (SMILES) | GI50
73 | c1ccc(CSC(SCc2ccccc2)c2ccc3c(c2)OCO3)cc1 | inactive: > 10 µM
74 | CCc1cc(O)c(Cl)c(C)c1Cl | inactive: 18.1 µM
75 | CSC1=N[C@H](c2ccccc2)CS1 | inactive: > 100 µM
76 | CC(=O)[C@@H](C)C(=O)N1C(=O)OC[C@@]12[C@@H]1CC[C@@H](C1)C2(C)C | inactive: > 100 µM
77 | O=C1c2ccccc2C(C2c3ccccc3C(=O)c3cc(Br)ccc32)c2ccc(Br)cc21 (stereo unspecified) | inactive: > 100 µM
78 | CCOC(=O)/C=C/C(Br)=C(Br)/C=C/C(=O)OCC | inactive: > 100 µM
79 | O=[N+]([O-])c1ccc(O)c(/C=N/c2nc(-c3ccccc3)cs2)c1 | inactive: 19.8 µM
80 | CSc1nnc(SCc2nn3c(=O)cc(C)nc3s2)s1 | inactive: > 100 µM
81 | CCCCCCC(C)CCCCCCCCCCC(=O)O (stereo unspecified) | inactive: > 100 µM
82 | c1cc2sc1CSCCSCCSC2 | inactive: > 100 µM
83 | CC(=C/C=C/C=C(C)\C=C\C=C(\C)C(=O)O)/C=C/C=C(/C)C(=O)O | inactive: > 100 µM
84 | NC(=O)NC(=O)C1CCCCC1C(=O)O (stereo unspecified) | inactive: > 100 µM
85 | O=C(Nc1ccccc1[N+](=O)[O-])c1ccccc1 | inactive: > 100 µM
86 | O=C1CCCCCCCCCCC(=O)N2CCOCCOCCN1Cc1cccc(n1)C2 | inactive: > 100 µM
87 | COC1C(O)=C2C(=O)OC(C)(O)/C=C/C=C\C=C/C=C/C(c3ccccc3)NC(=O)/C=C/C=C/C=C/C=C/C2(C)C1O (stereo unspecified) | active: 0.0918 µM
88 | Cc1c(C#N)c2nnn(-c3ccc([N+](=O)[O-])cc3)c(=O)n2c1-c1ccccc1 | inactive: 18.7 µM
89 | Cc1ccccc1/N=C/N(C)C | inactive: 83.9 µM
90 | COc1cc2c(cc1O)[C@]1(Cc3ccc4c(c3C1=O)OCO4)N(C)CC2 | inactive: > 100 µM
91 | COc1c(Br)cc(/C=C(\C#N)c2cccnc2)cc1Br | inactive: > 100 µM
92 | C#CCOCn1cnc2c(Cl)ncnc21 | inactive: > 100 µM
93 | CC(C)S(=O)(=O)ON1C(=O)c2ccc([N+](=O)[O-])cc2C1=O | inactive: > 100 µM
94 | CC(C)(C)c1ccc(OC(=O)Nc2ccc(O)c(C(=O)O)c2)cc1 | inactive: > 100 µM
95 | O=NNc1cnc(O)nc1O | inactive: > 100 µM
96 | CN(C)Cc1cc(C(=O)/C=C/c2ccccc2)cc(CN(C)C)c1O | inactive: 31.6 µM
